Results from patent CN106928350A.

Biological target: H15 HA (Influenza A virus, H15 subtype (strain not stated))
Assay: SPR, Fab amine-coupled on CM5 chip, HA in flow

B1: AF4H1K1 Fab (Fab, V domains shown)
VH: QVQLVESGGGVVQPGTSLRLSCEASGFTSSAYAMHWVRQAPGKGLEWVAVITFDGGYQYYADSVKGRFTISRDISRNTLHLHMNSLRAEDTAVYYCARDPLTKLLPFDWVSGGYFDYWGQGTLVTVSS
VL: DIVMTQSPGTLSLSPGERATLS[letters of about 80 residues left out]FGQGTKVEIK
Kd: 1800 nM
